Test results published in the supplement of paper PMC10126150.
Sequences with one replicate were seen in a single cluster, so their values are uncertain.

System: ATP
Experiment: switch fluorescence ratio, 500 uM ATP over buffer (Cy3 cluster intensity, sum of 5 cycles each) (fold (ratio)); higher = stronger signal-on switching upon ATP binding; sequences stand for … in TCGTCGGCAGCGTCAGATGTGTATAAGAGACAGTTTTTTTTTTTTTTTTTTTTTTTTT…TC
Details: aptamer strand: ATP DNA aptamer (quencher-CACCTGGGGGAGTATTGCGGAGGAAGG + anchor), 100 nM annealed; ATP concentration: 500 uM; one replicate
In short: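 Five buffer/ATP imaging cycles were run on Cy3-labelled switching-strand clusters on a modified Illumina MiSeq flow-cell, with NaOH stripping and re-annealing between cycles. In each cycle, clusters annealed to 100 nM quencher-labelled ATP aptamer were imaged in selection buffer, then after 15 min with 500 uM ATP at 22 °C. Per cluster, the fluorescence ratio is summed target-cycle over summed buffer-cycle Cy3 intensity, averaged per switch-domain sequence. Only clusters within 100-1000 RFU were kept.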
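Note: ATP exposure 15 min at 22 °C before imaging.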

Sequence	switch fluorescence ratio
TAGCAACGG	1.07
TTGGCCGTGG	0.998
GAATAATCCA	1.02
AGATAGATTA	1
GCGTAGTA	1.01
GGATATGTCT	0.961
TAATTTGGTC	0.948
AGATTTTAGA	0.946
ATACGGTCCA	1.07
TTTGTCGCG	1.02
GGCTCCCTTT	1.04
CGAGCATGCG	0.984
CGTTAAAGGC	1.07
CAAGATTCA	0.963
GCGCGCATG	1.01
TATTTTATGC	0.985
CCTGACGGAT	1.08
AGGCGAATCT	0.982
CGGTACCTCT	0.947
CGTTTCGAA	1.02
TCCTGGGCCA	0.998
ACGGGAATCG	1.01
CCATGCTGAA	0.974
GGATAGCTCA	0.983
CTCCGGTGCT	3.88
TGACATCTGT	0.984

Sequence	switch fluorescence ratio
ATGGCTTAAT	1.02
GCGCATATTA	1.12
TATAGCCGTG	1.17
TCTTAGAGAA	1.05
GATTGCCTAC	1.07
CTCGCATAGG	2.69
GAGTGTTGAC	0.986
CAGCATGTGC	1.07
GAGTATTCTT	0.928
TTAAGACACT	1.01
GCTAATCCGC	1.32
TATGGGTATC	0.951
CTGTACAATC	1.75
CTTGACTTCA	1.01
GTAAAGGTTT	0.952
GGCTAATCTA	0.967
AGGGGCTACA	0.97
ATTTGTAGAT	1.04
CTAGCGTAAC	1.31
TTTACCGTG	1.05
CGTCCCTAGG	2.01
GTGAGGCAG	1.01
TCAGGGTCCT	1.08
AGGGTTCGCG	1.03
ACAGCGACTG	0.998
CCCTAGCGCG	1.01

Sequence	switch fluorescence ratio
CCGCTCAGTG	1.73
AGTAAACGTT	1.05
ACTATCCACC	1.12
CGTGACACGA	0.962
TAAATTAAGA	1.02
CGCCACGGCT	0.993
GGCGTAGTT	0.977
GTAACATGTA	1.03
CTTAAGTAGC	1.07
ATTCTGACGG	0.987
AGCCGTGTTA	0.964
GGTGCAGAAG	1
GGGCCGTTCC	1.02
CGAGGGCAAA	2.77
GGAATCTCTA	0.99
CCGTGTCACT	1.06
CATCGTCGTT	1.01
AGCCGACACA	1.01
ATTTGGATTA	0.971
TACGGAA	1.13
GAGGGTA	0.949
TGGTTGAAGA	1.01
GTTATATCCC	0.983
CGACGTCATC	1.67
GTTCTGGCCC	1.01
TTAACGGT	1

Sequence	switch fluorescence ratio
GTTGAAAGAG	1.02
TAAGTAAGGC	1.02
GATGCACAAC	1.98
TGTGATGTGA	0.963
TTAGAGGCCT	1
GGGCCATTCT	1.17
TGAATTTGA	0.964
GTGACATATA	1.08
ATTCAAAGCA	1.78
AATGGTATCC	1.02
GGACTTAGGT	1.02
ACCGGGCTCT	1.04
ACCATTTAGA	0.995
TGCACGAGGT	0.997
TTTTACCAAT	1.03
TCCTGCTGGA	1
AACGCTCGGC	1.01
ATATCGTAGC	0.971
TAAAGCAGAC	2.21
GCTCAAATAA	1.08
TGGCCGAGAA	0.985
GTTGGCACGT	0.991
GGGGGAGCGC	0.939
GGGATGTATA	0.95
ATGAGTAAGC	0.97
TGCCGATTAG	0.988

Sequence	switch fluorescence ratio
GGCAAACGTT	1.02
GATCGTGCGC	0.991
CATAATCGTT	0.959
ACGCAAGTAT	1.13
ATAACTTCC	3.43
TCAATTCTGT	0.994
GTCCGAGATG	1.07
CCGGTCACGG	0.988
GGTATCTCCA	1.01
AATAGTCATT	0.982
GAGTATGCCA	0.846
AGGTTTTGAG	1.04
GGCGCTTTCA	0.975
GCCTTTAGAA	1.04
TGTTTCTG	1.01
TGGACCTGCT	1.03
GGAGAGGTGT	1.04
ATTCAAGGTA	1.01
TTAACGTTAA	1.2
GGCACCGGGC	1.04
ACCATGTGT	1.02
GTCGATCGGC	1.07
AGACTGTGGG	0.969
CCGTGATTTT	1.05
CTATGCACGG	1.07
GCCCCAGACA	1.04

Sequence	switch fluorescence ratio
TGCCCCCAGA	1.84
CGCCCAGTA	1.14
TGCAGTCACG	0.98
AGGGCCTCAC	1.02
GGGAGAGTCT	1.02
CTTGATGGCT	1.04
AGACGCTGTA	1.03
CGGGTCGCTA	1.11
CGTTCGATA	0.98
TATCTGGAGT	1.14
TCTACCTAGT	1.05
ATGTGTATGC	1
ACGTCTCTCT	1
ACACTGCGAA	1.12
AGGGTTCCAT	0.977
CTGTGCGA	1.08
TTCAGAACAA	1.12
CCGTGCAAAT	5.22
AACGGCTCTG	0.975
GATACTTCGT	1.03
TTGGAACTAA	1.02
TTGCAGGCTG	1.02
TGGATGAATC	0.978
AATGCTCTGG	1
CAGACTCGAC	1.09
TCGCATAAA	1.26

Sequence	switch fluorescence ratio
TTCCGATGGC	1.13
CAGTCGATAC	5.05
TTATCGAGAG	1
GATACCGACA	1.19
CCGTTTATCA	0.985
AGGACAGGA	1.04
TAAAAATGAA	1.04
TGGCCTAAGT	0.987
AGCGGGTGGC	1.04
ACTGCAGAGC	1
TAATCCATTG	0.955
GGAAAGAGAT	1.03
GAGTTATCAC	1.07
TAGCTTTTGT	1.03
ACAGGCACGT	1.24
TATCCTCGTT	1.02
AACTACACAG	1.13
CTCGGGCTGG	1.01
TGCGTCCGAG	1.07
CCAATCAATA	1.3
AGTACCCGTT	1.01
ATTCAGGAAC	0.964
TCACGAGACG	1.07
ACCCGAGG	1.06
CGATGACAGC	1.03
ACAGCGGGTT	1.03

Sequence	switch fluorescence ratio
AAAAAAATTA	0.92
AGCGCCTCGC	1.01
TTATCTGTAC	1.09
ATGTCTTAGC	0.991
ATCTCAGGAT	0.992
GTCCGAACGA	1.26
GCAACCCATG	1.08
GAGAAGTAGG	1.01
CCATTGAACG	1.05
ACAAACGTAT	1.37
TTACACGATT	1.05
GAAAGTGAC	0.947
AAAGGTTCGA	0.965
GGTGCGTCCC	0.982
CAGAACTCT	1.01
TATCCGTTGA	1.06
TCGTGACTCA	1.13
ATCGATGT	0.986
CTCCGGGGCA	1.93
